B1: GPR68, Q15743 (parent)
chain: MGNITADNSSMSCTIDHTIHQTLAPVVYVTVLVVGFPANCLSLYFGYLQIKARNELGVYLCNLTVADLFYICSLPFWLQYVLQHDNWSHGDLSCQVCGILLYENIYISVGFLCCISVDRYLAVAHPFRFHQFRTLKAAVGVSVVIWAKELLTSIYFLMHEEVIEDENQHRVCFEHYPIQAWQRAINYYRFLVGFLFPICLLLASYQGILRAVRRSHGTQKSRKDQIQRLVLSTVVIFLACFLPYHVLLLVRSVWEASCDFAKGVFNAYHFSLLLTSFNCVADPVLYCFVSETTHRDLARLRGACLAFLTCSRTGRAREAYPLGAPEASGKSGAQGEEPELLTKLHPAFQTPNSPGSGGFPTGRLA

In series [1] the parent is B1. The series can be described thus: cAMP reporter score (Enrich2 score, wild type = 0); higher = more signal; HEK293T, FACS bins.
Series [2] covers variants of B1. Put plainly: surface expression score (Enrich2 score, wild type = 0); higher = more signal; HEK293T, FACS bins.

Scores with a large standard error are left out. The source holds two more conditions with little spread; they are left out. Names with del lack the residues named; names with ins carry added residues between the positions named. For some of these results: How much ogerin was present is not stated here.

On to V27D, for which the cAMP reporter score was -1.19 in series [1] (pH 5.5); -0.434 in series [1] (pH 6); -1.47 in series [1] (pH 6, modulator: ogerin); -0.94 in series [1] (pH 6.5, modulator: ogerin). In series [2], the surface expression score is -1.18.
On the same counts, the results for V27P are -1.36, -0.485, -1.59, -1.05 and -1.99.
On the same counts, the results for V27K are -1.79, -0.516, -1.96, -1.35 and -2.24.
Regarding V27Y, the cAMP reporter score is -2.32 in series [1] (pH 5.5); -0.625 in series [1] (pH 6); -1.49 in series [1] (pH 6, modulator: ogerin); -0.601 in series [1] (pH 6.5, modulator: ogerin). Moreover, in series [2], the surface expression score is -2.57.
For the variant V27H, the cAMP reporter score is -1.26 in series [1] (pH 5.5); -0.811 in series [1] (pH 6); -0.893 in series [1] (pH 6, modulator: ogerin); -0.856 in series [1] (pH 6.5, modulator: ogerin). The surface expression score in series [2] is -2.57.
Regarding V27L, the cAMP reporter score in series [1] (pH 5.5) is -0.288; in series [1] (pH 6), -0.285; in series [1] (pH 6, modulator: ogerin) it was -0.058; in series [1] (pH 6.5, modulator: ogerin) it was -0.164. Besides, in series [2], the surface expression score is -1.12.
V27G: the cAMP reporter score is -1.77 in series [1] (pH 5.5); -0.659 in series [1] (pH 6); -1.36 in series [1] (pH 6, modulator: ogerin); -0.862 in series [1] (pH 6.5, modulator: ogerin). Further, the surface expression score in series [2] is -2.22.
Regarding V27I, the cAMP reporter score amounted to 0.434 in series [1] (pH 5.5); 0.966 in series [1] (pH 6); 0.43 in series [1] (pH 6, modulator: ogerin); 0.93 in series [1] (pH 6.5, modulator: ogerin). In addition, the surface expression score in series [2] is 0.94.
The corresponding values for V27M are -0.963, -0.764, -1.25, -0.63 and -1.61.
On the same counts, the results for V27R are -1.55, -0.837, -1.9, -1.48 and -2.27.
On to V27E, for which the cAMP reporter score is -1.07 in series [1] (pH 5.5); -1.49 in series [1] (pH 6, modulator: ogerin); -0.905 in series [1] (pH 6.5, modulator: ogerin). Also, the surface expression score in series [2] is -2.77.
In the case of V27Q, the cAMP reporter score in series [1] (pH 5.5) is -1.44; in series [1] (pH 6), -1.35; in series [1] (pH 6, modulator: ogerin), -2.14; in series [1] (pH 6.5, modulator: ogerin) it was -0.356. In addition, the surface expression score in series [2] is -2.33.
Regarding V27S, the cAMP reporter score is -1.2 in series [1] (pH 5.5); -1.07 in series [1] (pH 6); -1.99 in series [1] (pH 6, modulator: ogerin); -1.35 in series [1] (pH 6.5, modulator: ogerin).
In the case of V27W, the cAMP reporter score in series [1] (pH 5.5) was 0.046; in series [1] (pH 6), 0.084; in series [1] (pH 6, modulator: ogerin) it was -0.605; in series [1] (pH 6.5, modulator: ogerin), -0.64. Moreover, the surface expression score in series [2] was -0.658.
Take V27C: the cAMP reporter score in series [1] (pH 5.5) was -0.832; in series [1] (pH 6), -0.316; in series [1] (pH 6.5, modulator: ogerin) it was -2.12. In series [2], the surface expression score is -2.77.
On the same counts, the results for V27A are -1.73, -0.862, -1.45 and -1.6.
On the same counts, the results for V27F are -0.677, -0.411, -1.46 and -0.122.
With V27N, the cAMP reporter score in series [1] (pH 5.5) is -1.1; in series [1] (pH 6) it was 0.252; in series [1] (pH 6, modulator: ogerin) it was -0.798. Moreover, the surface expression score in series [2] is -2.59.
For the variant V27_Y28insGS, the cAMP reporter score in series [1] (pH 5.5) was -1.36; in series [1] (pH 6), -1.38; in series [1] (pH 6, modulator: ogerin) it was -1.89; in series [1] (pH 6.5, modulator: ogerin) it was -1.3. Further, the surface expression score in series [2] is -2.43.
The corresponding values for V33_V34del are -0.9, -0.61, -1.28, -1.76 and -2.16.
Consider P37_A38insGSG, for which the cAMP reporter score in series [1] (pH 5.5) is -2.75; in series [1] (pH 6, modulator: ogerin), -1.78; in series [1] (pH 6.5, modulator: ogerin) it was -1.19. The surface expression score in series [2] is -1.83.
V33_G35del: the cAMP reporter score in series [1] (pH 5.5) is -1.56; in series [1] (pH 6) it was -1.09; in series [1] (pH 6, modulator: ogerin) it was -1.54; in series [1] (pH 6.5, modulator: ogerin) it was -1.49. The surface expression score in series [2] is -2.54.
Consider P37_A38del, for which the cAMP reporter score is -1.35 in series [1] (pH 5.5); -0.735 in series [1] (pH 6); -1.41 in series [1] (pH 6, modulator: ogerin); -1.09 in series [1] (pH 6.5, modulator: ogerin). Further, the surface expression score in series [2] was -2.25.
As for P25_V26insG, the cAMP reporter score was -1.48 in series [1] (pH 5.5); -1.37 in series [1] (pH 6); -1.36 in series [1] (pH 6, modulator: ogerin); -1.06 in series [1] (pH 6.5, modulator: ogerin). In series [2], the surface expression score is -2.21.
The corresponding values for A38_N39insG are -0.427, -0.92, -1.71, -0.981 and -2.2.
On the same counts, the results for T30_V31del are -1.19, -0.829, -2.08, -0.581 and -2.45.
On the same counts, the results for V26_V27del are -1.45, -1.72, -1.83, -1.12 and -2.22.
In the case of V33_V34insG, the cAMP reporter score in series [1] (pH 5.5) was -1.73; in series [1] (pH 6), -1.19; in series [1] (pH 6, modulator: ogerin) it was -1.38; in series [1] (pH 6.5, modulator: ogerin), -1.41. For the same variant, in series [2], the surface expression score was -1.99.
The corresponding values for L32_V33insGS are -1.33, -1.02, -1.46, -0.675 and -2.59.
The corresponding values for A38del are -0.75, 0, -1.05, -0.64 and -2.23.
For the variant V29_T30insGS, the cAMP reporter score in series [1] (pH 5.5) and in series [1] (pH 6) was -1.54 each time. In series [2], the surface expression score is -2.04.
For F36del, the cAMP reporter score in series [1] (pH 5.5) was -1.25; in series [1] (pH 6), -0.585; in series [1] (pH 6, modulator: ogerin) it was -2.05; in series [1] (pH 6.5, modulator: ogerin), -0.891. Moreover, the surface expression score in series [2] is -3.09.
